# Measurements as given in PubChem BioAssay AID686978 (National Center for Advancing Translational Sciences (NCATS), 2013).
# In all, about 420,000 compounds went through this assay and about 64,000 (15%) were called active. Inconclusive results, whose numbers are uncertain, are shown with a selection of clear calls. The call rests on the fitted dose curve; in most records, active means well fitted inhibition curve with a large enough effect; inconclusive means small, poorly fitted or top-dose-only effect; inactive means flat fitted curve, though single readings scatter. Potencies of inconclusive entries are left out as doubtful fits.
# Test: qHTS for Inhibitors of human tyrosyl-DNA phosphodiesterase 1 (TDP1): qHTS in cells in absence of CPT; further: nearly all actives have a fitted effect of over 55% in size
# Settings: DT40 Tdp1-/- hTDP1 cells, no CPT, ATP luminescence, 48 h; activity change, negative = growth inhibition: at 46.2 µM (top of the series) unless noted
# Summary of the method: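 Stably hTDP1-transfected Tdp1-null chicken DT40 cells were treated with library compounds minus camptothecin and grown for at least 48 hr at 37 °C, after which cellular ATP was quantified by luminescence.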
# On the % scale 0 is the no-effect control and ±100 the full control effect; potency means the concentration at half of the fitted maximal effect; tags describe the fitted curve by direction and shape.
Structure (SMILES),Potency,"activity change, negative = growth inhibition"
C[C@@H]1CN([C@@H](C)CO)C(=O)CCCn2nncc2CO[C@H]1CN(C)Cc1ccc2c(c1)OCO2,"inconclusive [inhibitor, single point]",–
Cc1csc(NC(=O)c2ccc(N3CCCC3=O)cc2)n1,–,inconclusive: -35.6% [inhibitor]
O=C(Nc1ccc(Oc2cccnc2)nc1)c1ccc(C(F)(F)F)cc1,active: 14.6 µM,–
CCOc1ccccc1N(C(=O)c1snc(C(N)=O)c1N)C(C(=O)NCCC(C)C)c1ccco1 (stereo not given),active: 20.6 µM,–
S=C(Nc1ccccc1)N1CCCCC1,–,inactive: -3.56%
Cc1ccc(C(=O)OCN2C(=O)c3ccccc3C2=O)c(O)c1,–,inactive: 3.47%
CC(=O)c1ccc(F)c(-c2cc(C)cc3c2OC(CNC(=O)Cn2nc(C)nc2C)C3)c1 (stereo not given),–,inactive: -15.2%
COc1ccc(C(=O)N2CCNC(=O)C2CC(=O)Nc2ccc(C)c(C)c2)cc1 (stereo not given),"inconclusive [inhibitor, single point]",–
CCCCN=C(N)/C(C(=O)OCC)=C(\O)c1ccc(OC)cc1,"inconclusive [inhibitor, single point]",–
COc1ccc(NC(=O)[C@H](Cc2c[nH]c3ccccc23)NC(=O)[C@@H]2Cc3ccccc3CN2)cc1,"inconclusive [inhibitor, single point]",–
O=C(Cn1cnc2ccccc2c1=O)N1CCN(Cc2ccc3c(c2)OCO3)CC1,–,inactive: -26%
O=C1CCCN1CCCN=c1c([N+](=O)[O-])nn(-c2ccc(Cl)cc2)n1O,active: 6.51 µM,–
O=C(NC1CCc2ccccc21)C1CCN(S(=O)(=O)c2ccc(Cl)cc2)CC1 (stereo not given),"inconclusive [inhibitor, single point]",–
Cc1cc(C)c(C)c(S(=O)(=O)NC(C(=O)O)C(C)C)c1C (stereo not given),–,inactive: -3.97%
O=C1[C@H](c2ccccc2)[C@@H](c2ccccc2)N1c1ccncc1,"inconclusive [inhibitor, single point]",–
Cc1ccc(N2C(=O)N(CC(=O)Nc3ccc(C)c(C)c3)C(=O)C2C)cc1 (stereo not given),"inconclusive [inhibitor, single point]",–
CN(Cc1ccccc1Br)C(=O)CSc1nnnn1C1CC1,"inconclusive [inhibitor, single point]",–
CC(C)(C)NC(=O)C(c1ccc(C(F)(F)F)cc1)n1c(=O)c(-c2ccccc2)nc2ccccc21 (stereo not given),"inconclusive [inhibitor, single point]",–
CC(C)(C)C(=O)Nc1ccc(-c2cn3ccsc3n2)cc1,"inconclusive [inhibitor, single point]",–
CN1C(=O)C2(Oc3ccccc3C3CC(c4ccccc4)=NN32)c2ccccc21 (stereo not given),"inconclusive [inhibitor, single point]",–
COc1ccccc1[C@]1(C)ON(c2ccccc2C(F)(F)F)C1=O,"inconclusive [inhibitor, single point]",–
CC(=O)c1ccc(OCc2cc(C(=O)N3CC[C@@H]4CCCC[C@H]4C3)no2)cc1,active: 16.4 µM,–
COc1ccc2c(c1OC)C(=O)N1N=C(c3ccc(O)cc3)CC21 (stereo not given),"inconclusive [inhibitor, single point]",–

Structure (SMILES),Potency,"activity change, negative = growth inhibition"
CC1Cc2nc(SCC(=O)N3CCCCC3)n(C)c(=O)c2S1 (stereo not given),"inconclusive [inhibitor, single point]",–
COc1cc(OC)c(OC)cc1/C=C/C(=O)c1ccc(NS(=O)(=O)c2ccc(C)cc2)cc1,"inconclusive [inhibitor, single point]",–
O=C(c1nc2ccccn2c1CN1CCC(Cc2ccccc2)CC1)N1CCCC1,active: 23.1 µM,–
COc1ccc(OC)c(NC(=O)Cn2ccn(-c3ccc(OC)c(OC)c3)c(=O)c2=O)c1,–,inactive: 0.252%
CCc1sc(C(=O)NCc2cc(C)n(C)n2)cc1Br,"inconclusive [inhibitor, single point]",–
CCSc1ccc2nnc(-c3ccc(F)cc3)n2n1,"inconclusive [inhibitor, single point]",–
Cc1ccc(SCC(=O)c2c(C)[nH]c3ccccc23)cc1,–,inactive: -8.61%
COc1ccccc1NC(=O)CSc1ccc(-c2ccc(-n3cccn3)cc2)nn1,active: 18.4 µM,–
COc1ccc2cc(CCl)c(Cl)nc2c1,"inconclusive [inhibitor, single point]",–
Cc1ccc(NC(=O)c2ccc(NCCCN3CCC(C)CC3)c([N+](=O)[O-])c2)cc1F,active: 8.2 µM,–
CS(=O)(=O)N(Cc1ccccc1Cl)c1ccc(C(=O)NCc2ccccn2)cc1,–,inconclusive: -33.5% [inhibitor]
NC(=O)C1CCCN(Cc2ccc3c(c2)CN(Cc2ccccc2)CCO3)C1 (stereo not given),–,inactive: -17.7%
CC1=C(C(=O)N2CCCCCC2)CC(CC(=O)NCc2cccc3ccccc23)C(=O)N1CCC1=CCCCC1 (stereo not given),"inconclusive [inhibitor, single point]",–
CCc1ccc(NC(=O)Nc2ccccc2OCc2cc(=O)n3ccccc3n2)cc1,"inconclusive [inhibitor, single point]",–
O=C(O)c1cccc(S(=O)(=O)NCCc2ccccc2)c1,"inconclusive [inhibitor, single point]",–
COc1cc(OC)c(-c2cc(C(=O)O)ccc2OC)c(OC)c1,–,inactive: -3.71%
CCN(CC)S(=O)(=O)c1cccc(NC(=O)COc2ccc(Cl)cc2Br)c1,"inconclusive [inhibitor, single point]",–
CCCCC(=O)Nc1ccc(C(=O)OC2CCCCC2)cc1,"inconclusive [inhibitor, single point]",–
CCOC(=O)c1ccccc1NC(=O)CSc1nnc(Cc2cccn2C)n1-c1ccc(F)cc1,"inconclusive [inhibitor, partial curve]",–
COC(=O)c1ccc(Cl)c(NC(=O)NC23CC4CC(CC(C4)C2)C3)c1,active: 18.4 µM,–
Cc1oc(-c2ccoc2)nc1CN(Cc1ccccc1)CC1CC1,–,inactive: -0.93%
CCOc1ccc(Br)cc1C1C(C(=O)OC)=C(C)NC2=C1C(=O)c1ccccc12 (stereo not given),"inconclusive [inhibitor, single point]",–
